Assay results from paper PMC12820563.
This is one part of the list. The list includes weakly bound sequences.

What follows are sequences tested against T1, MBP-FoxP3dN (UniProt Q99JB6) (assay: PD-seq (MBP pull-down with sequencing)). Details: 20 mM Tris-HCl pH 7.5, 100 mM NaCl, 1.5 mM MgCl2, 0.4 uM protein, 0.1 uM dsDNA library, 30 min, room temperature, amylose pull-down; high values mean tight binding; double strand, one strand shown.
T1 sequence: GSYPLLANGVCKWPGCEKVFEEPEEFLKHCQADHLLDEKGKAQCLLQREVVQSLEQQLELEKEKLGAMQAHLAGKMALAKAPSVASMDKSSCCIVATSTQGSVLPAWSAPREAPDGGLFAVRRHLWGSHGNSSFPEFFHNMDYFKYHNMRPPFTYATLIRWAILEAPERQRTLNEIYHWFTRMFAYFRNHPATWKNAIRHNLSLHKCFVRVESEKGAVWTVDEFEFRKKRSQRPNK

Sequence | binding signal (RPM ratio (pull-down/input))
GATGATTGTTCTCCCAGCTGATGAATTAGTTACATCGAGTAAACAAATTTTCCTAATCTTTCTGTTCAAGCGCCATCTAC | 0.891
GATGATTGTTCTCCCAGCTGATGAATTGGAATATTCGAGTAAACAAATTTTCCTAATCTTTCTGTTCAAGCGCCATCTAC | 0.465
GATGATTGTTCTCCCAGCTGATGAATTTGTATACTCGAGTAAACAAATTTTCCTAATCTTTCTGTTCAAGCGCCATCTAC | 7.1
GATGATTGTTCTCCCAGCTGATGAATTACGCACCTCGAGTAAACAAATTTTCCTAATCTTTCTGTTCAAGCGCCATCTAC | 1.35
GATGATTGTTCTCCCAGCTGATGAATTGCATGTATCGAGTAAACAAATTTTCCTAATCTTTCTGTTCAAGCGCCATCTAC | 2.88
GATGATTGTTCTCCCAGCTGATGAATTGGCCAGCTCGAGTAAACAAATTTTCCTAATCTTTCTGTTCAAGCGCCATCTAC | 0.253
GATGATTGTTCTCCCAGCTGATGAATTTGATGTGTCGAGTAAACAAATTTTCCTAATCTTTCTGTTCAAGCGCCATCTAC | 6.14
GATGATTGTTCTCCCAGCTGATGAATTGAGATTTTCGAGTAAACAAATTTTCCTAATCTTTCTGTTCAAGCGCCATCTAC | 0.596
GATGATTGTTCTCCCAGCTGATGAATTGTTTATTTCGAGTAAACAAATTTTCCTAATCTTTCTGTTCAAGCGCCATCTAC | 6.99
GATGATTGTTCTCCCAGCTGATGAATTCCTGCTTTCGAGTAAACAAATTTTCCTAATCTTTCTGTTCAAGCGCCATCTAC | 0.695
GATGATTGTTCTCCCAGCTGATGAATTGTCAAAATCGAGTAAACAAATTTTCCTAATCTTTCTGTTCAAGCGCCATCTAC | 0.24
GATGATTGTTCTCCCAGCTGATGAATTAGGCACTTCGAGTAAACAAATTTTCCTAATCTTTCTGTTCAAGCGCCATCTAC | 0.813
GATGATTGTTCTCCCAGCTGATGAATTTCTGAGATCGAGTAAACAAATTTTCCTAATCTTTCTGTTCAAGCGCCATCTAC | 0.215
GATGATTGTTCTCCCAGCTGATGAATTAGATACGTCGAGTAAACAAATTTTCCTAATCTTTCTGTTCAAGCGCCATCTAC | 0.583
GATGATTGTTCTCCCAGCTGATGAATTCGGTCGGTCGAGTAAACAAATTTTCCTAATCTTTCTGTTCAAGCGCCATCTAC | 0.238
GATGATTGTTCTCCCAGCTGATGAATTATGACTCTCGAGTAAACAAATTTTCCTAATCTTTCTGTTCAAGCGCCATCTAC | 2.29
GATGATTGTTCTCCCAGCTGATGAATTCAAATGTTCGAGTAAACAAATTTTCCTAATCTTTCTGTTCAAGCGCCATCTAC | 0.501
GATGATTGTTCTCCCAGCTGATGAATTGTGTTGTTCGAGTAAACAAATTTTCCTAATCTTTCTGTTCAAGCGCCATCTAC | 8.43
GATGATTGTTCTCCCAGCTGATGAATTCTCGGGATCGAGTAAACAAATTTTCCTAATCTTTCTGTTCAAGCGCCATCTAC | 0.184
GATGATTGTTCTCCCAGCTGATGAATTTGCACCCTCGAGTAAACAAATTTTCCTAATCTTTCTGTTCAAGCGCCATCTAC | 0.844
GATGATTGTTCTCCCAGCTGATGAATTTAGATCTTCGAGTAAACAAATTTTCCTAATCTTTCTGTTCAAGCGCCATCTAC | 0.428

Sequence | binding signal (RPM ratio (pull-down/input))
GATGATTGTTCTCCCAGCTGATGAATTCCACTAATCGAGTAAACAAATTTTCCTAATCTTTCTGTTCAAGCGCCATCTAC | 0.298
GATGATTGTTCTCCCAGCTGATGAATTTCGCACCTCGAGTAAACAAATTTTCCTAATCTTTCTGTTCAAGCGCCATCTAC | 1.65
GATGATTGTTCTCCCAGCTGATGAATTCTCGGCATCGAGTAAACAAATTTTCCTAATCTTTCTGTTCAAGCGCCATCTAC | 0.601
GATGATTGTTCTCCCAGCTGATGAATTATTTCGTTCGAGTAAACAAATTTTCCTAATCTTTCTGTTCAAGCGCCATCTAC | 0.436
GATGATTGTTCTCCCAGCTGATGAATTTTTGCACTCGAGTAAACAAATTTTCCTAATCTTTCTGTTCAAGCGCCATCTAC | 0.699
GATGATTGTTCTCCCAGCTGATGAATTGCTATAATCGAGTAAACAAATTTTCCTAATCTTTCTGTTCAAGCGCCATCTAC | 0.663
GATGATTGTTCTCCCAGCTGATGAATTATCCTGATCGAGTAAACAAATTTTCCTAATCTTTCTGTTCAAGCGCCATCTAC | 0.184
GATGATTGTTCTCCCAGCTGATGAATTCCCCCCTTCGAGTAAACAAATTTTCCTAATCTTTCTGTTCAAGCGCCATCTAC | 0.244
GATGATTGTTCTCCCAGCTGATGAATTGTGGTGCTCGAGTAAACAAATTTTCCTAATCTTTCTGTTCAAGCGCCATCTAC | 1.35
GATGATTGTTCTCCCAGCTGATGAATTTCGTCCGTCGAGTAAACAAATTTTCCTAATCTTTCTGTTCAAGCGCCATCTAC | 0.374
GATGATTGTTCTCCCAGCTGATGAATTTCCGAGTTCGAGTAAACAAATTTTCCTAATCTTTCTGTTCAAGCGCCATCTAC | 0.383
GATGATTGTTCTCCCAGCTGATGAATTCGTACAGTCGAGTAAACAAATTTTCCTAATCTTTCTGTTCAAGCGCCATCTAC | 0.349
GATGATTGTTCTCCCAGCTGATGAATTTCCACCCTCGAGTAAACAAATTTTCCTAATCTTTCTGTTCAAGCGCCATCTAC | 0.274
GATGATTGTTCTCCCAGCTGATGAATTCAGGGATTCGAGTAAACAAATTTTCCTAATCTTTCTGTTCAAGCGCCATCTAC | 0.401
GATGATTGTTCTCCCAGCTGATGAATTGTCATGCTCGAGTAAACAAATTTTCCTAATCTTTCTGTTCAAGCGCCATCTAC | 0.724
GATGATTGTTCTCCCAGCTGATGAATTTGAGTGATCGAGTAAACAAATTTTCCTAATCTTTCTGTTCAAGCGCCATCTAC | 0.633
GATGATTGTTCTCCCAGCTGATGAATTTCTCGCCTCGAGTAAACAAATTTTCCTAATCTTTCTGTTCAAGCGCCATCTAC | 0.486
GATGATTGTTCTCCCAGCTGATGAATTCCAGCGTTCGAGTAAACAAATTTTCCTAATCTTTCTGTTCAAGCGCCATCTAC | 0.981
GATGATTGTTCTCCCAGCTGATGAATTGACAAGCTCGAGTAAACAAATTTTCCTAATCTTTCTGTTCAAGCGCCATCTAC | 0.373
GATGATTGTTCTCCCAGCTGATGAATTTGACTTTTCGAGTAAACAAATTTTCCTAATCTTTCTGTTCAAGCGCCATCTAC | 0.49
GATGATTGTTCTCCCAGCTGATGAATTGACCGGTTCGAGTAAACAAATTTTCCTAATCTTTCTGTTCAAGCGCCATCTAC | 0.287

Sequence | binding signal (RPM ratio (pull-down/input))
GATGATTGTTCTCCCAGCTGATGAATTGTAAATCTCGAGTAAACAAATTTTCCTAATCTTTCTGTTCAAGCGCCATCTAC | 0.565
GATGATTGTTCTCCCAGCTGATGAATTGAGTTGTTCGAGTAAACAAATTTTCCTAATCTTTCTGTTCAAGCGCCATCTAC | 3.69
GATGATTGTTCTCCCAGCTGATGAATTCGCGTGATCGAGTAAACAAATTTTCCTAATCTTTCTGTTCAAGCGCCATCTAC | 1.17
GATGATTGTTCTCCCAGCTGATGAATTGAAATCCTCGAGTAAACAAATTTTCCTAATCTTTCTGTTCAAGCGCCATCTAC | 0.228
GATGATTGTTCTCCCAGCTGATGAATTAACGAGGTCGAGTAAACAAATTTTCCTAATCTTTCTGTTCAAGCGCCATCTAC | 0.25
GATGATTGTTCTCCCAGCTGATGAATTGTCTACGTCGAGTAAACAAATTTTCCTAATCTTTCTGTTCAAGCGCCATCTAC | 0.986
GATGATTGTTCTCCCAGCTGATGAATTCCAAGCGTCGAGTAAACAAATTTTCCTAATCTTTCTGTTCAAGCGCCATCTAC | 0.443
GATGATTGTTCTCCCAGCTGATGAATTTACTCCATCGAGTAAACAAATTTTCCTAATCTTTCTGTTCAAGCGCCATCTAC | 0.462
GATGATTGTTCTCCCAGCTGATGAATTCTATATGTCGAGTAAACAAATTTTCCTAATCTTTCTGTTCAAGCGCCATCTAC | 1.08
GATGATTGTTCTCCCAGCTGATGAATTTTTGATGTCGAGTAAACAAATTTTCCTAATCTTTCTGTTCAAGCGCCATCTAC | 0.448
GATGATTGTTCTCCCAGCTGATGAATTCGCAGCCTCGAGTAAACAAATTTTCCTAATCTTTCTGTTCAAGCGCCATCTAC | 0.684
GATGATTGTTCTCCCAGCTGATGAATTGCTTATGTCGAGTAAACAAATTTTCCTAATCTTTCTGTTCAAGCGCCATCTAC | 1.87
GATGATTGTTCTCCCAGCTGATGAATTTGCCGTGTCGAGTAAACAAATTTTCCTAATCTTTCTGTTCAAGCGCCATCTAC | 1.22
GATGATTGTTCTCCCAGCTGATGAATTAGGTTGTTCGAGTAAACAAATTTTCCTAATCTTTCTGTTCAAGCGCCATCTAC | 3.37
GATGATTGTTCTCCCAGCTGATGAATTACCCTCATCGAGTAAACAAATTTTCCTAATCTTTCTGTTCAAGCGCCATCTAC | 0.432
GATGATTGTTCTCCCAGCTGATGAATTCCCCGGGTCGAGTAAACAAATTTTCCTAATCTTTCTGTTCAAGCGCCATCTAC | 0.141
GATGATTGTTCTCCCAGCTGATGAATTCCTCCCGTCGAGTAAACAAATTTTCCTAATCTTTCTGTTCAAGCGCCATCTAC | 0.199
GATGATTGTTCTCCCAGCTGATGAATTTTTGCTATCGAGTAAACAAATTTTCCTAATCTTTCTGTTCAAGCGCCATCTAC | 0.803
GATGATTGTTCTCCCAGCTGATGAATTGCTGCTTTCGAGTAAACAAATTTTCCTAATCTTTCTGTTCAAGCGCCATCTAC | 1.37
GATGATTGTTCTCCCAGCTGATGAATTTGGCCCATCGAGTAAACAAATTTTCCTAATCTTTCTGTTCAAGCGCCATCTAC | 1.19
GATGATTGTTCTCCCAGCTGATGAATTGAACATATCGAGTAAACAAATTTTCCTAATCTTTCTGTTCAAGCGCCATCTAC | 0.495
